# Assay results from the RNAGym collection of RNA variant scans (doi:10.1093/nar/gkz1192).
# Read counts are not given, so values of variants with three or more changes are uncertain.
# B1: CPEB3 Ribozyme (parent)
# chain: UAACAGGGGGCCACAGCAGAAGCGUUCACGUCGCAGCCCCUGUCAGAUUCUGGUGAAUCUGCGAAUUCUGCUGUAUAUCUC
# Variants of: B1
# Experiment: self-cleavage, relative activity (ratio to wild type); higher = more cleavage; in vitro, sequencing
# Method in brief: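 Relative activity was defined as the cleaved/total read fraction for a variant divided by the same fraction for the unmutated ribozyme. CPEB3 self-cleaving ribozyme libraries were made by rounds of error-prone PCR, barcoded, and transcribed in vitro with T7 RNA polymerase for 5 hours at 37°C, and cleavage ran through transcription plus a 15 min DNase I step before EDTA. Illumina sequencing of template-switched reverse transcripts gave the reads, and DNA sequencing mapped the barcodes. Averages come from three batches, using variants with at least 5 reads.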
row,Variant,self-cleavage
1,A28G A56G A64U U76C,0.1
2,A28C U31G A35U U51C U60A U67C,0.11
3,A28G U41C A56G,0.29
4,C27U U48A U54A U78C,0.2
5,A28G A35U U54C U60C U67A U78A,0.04
6,A28C A35U U51A U54A C79A,0.16
7,A28G G30C C39U A56G U69C U78G,0.25
8,A28G U41C A47U,0.23
9,C27U U49C U60C,0.21
10,A28G A47G U54A U80C,0.5
11,C27U U41C A65G U80A,0.19
12,A28C A45U U60C G63C,0.14
13,A28G U31C C59U,0.32
14,A28G C39A U80A,0.57
15,A28G U41C U43A U80C,0.37
16,A28G U41C U60C,0.15
17,A28G U67C C68A,0.17
18,A28G C39A U51A,0.37
19,A28G U41A U78C U80C,0.14
20,A28G G53C U60C A64G,0.13
21,A28G U48C A56G U60C A64U U80C,0.19
22,A28G U54C A57G,0.25
23,A28G U54C A65G U69A,0.15
24,A28G A45C A56G,0.21

row,Variant,self-cleavage
1,A28G G30U A35U,0.14
2,A28G C62U A65G G70A U80A,0.08
3,A28G C39G U41A U48G,0.23
4,A28G C40U U69A,0.11
5,A28G A56U U80A,0.2
6,A28G U48C U74C,0.52
7,A28G G33A G36A A64U,0.1
8,A28G C37U C79A,0.22
9,A28G A35U U78A U80A,0.21
10,A28G G36U U69A,0.12
11,A28G C32U A64U,0.19
12,A28G U31C U78C,0.21
13,A28C U67C U69A,0.15
14,A28G A64G A65U G73A,0.17
15,A28G C44A U58C,0.15
16,A28G C37U U43C,0.11
17,A28G U49C U51C U67C U69A,0.04
18,C27U U54G G55C U60C U67C,0.08
19,A28G U43C A47G U60C,0.24
20,A28G U49A U78C,0.19
21,A28C U31C A64U U74C,0.12
22,A28G C32A G63U,0.2
23,A28C U31G U78C,0.14
24,A28G C32U U49C,0.11

row,Variant,self-cleavage
1,A28G G53A U67C U74C,0.14
2,A28G A35U U49C U60C A77U U78C,0.06
3,A28G C32U U49C U66C,0.07
4,A28G C39U U54C,0.21
5,A28G C40U U51C,0.29
6,A28G C62U A77G,0.18
7,A28G U51C G61A U72A,0.21
8,C27U U48C U80A,0.09
9,A28C A57G A64G,0.45
10,A28G A45G A64U U66A,0.21
11,A28G U54C U58C,0.1
12,A28C U41C G73C,0.5
13,A28C A35G C44A,0.41
14,A28G C40G U80A,0.23
15,A28G A35G U74G A75G,1.18
16,A28G C34U C40U A65G U69C,0.13
17,A28C A45G U48C G61A G63A,0.14
18,A28G G36A U69C U72C,0.13
19,A28C U49C A64G A75G,0.22
20,A28G A56C U78A,0.39
21,C27U U41C U43C U60C U67C C68U,0.07
22,A28G C38U U51A,0.23
23,A28C G30A A45U U51C U54C U80C,0.06
24,A28G U31A A56G U80C,0.39

row,Variant,self-cleavage
1,A28G A45G U48C U67C U74C,0.15
2,A28G U31C A47G U49C U72A,0.14
3,A28G U31C G42A,0.23
4,A28C U66C G73U U80A,0.12
5,A28G C68A U74G,0.04
6,A28G A75U U78C,0.8
7,A28G A35U U60C,0.14
8,A28G C40U U66C,0.21
9,A28G U41A U49C U54C U69A,0.05
10,A28G U31C U69A U80G,0.17
11,A28G U54C U67C,0.14
12,C27U G33A A35G A57G U58C U60C,0.12
13,A28G U41C A57G U76C,0.37
14,A28G U31C C34G C39U A47G A56G A57G,0.15
15,A28G G42A U49C,0.07
16,A28G U41C U43C,0.48
17,A28G U41C U54C,0.54
18,A28G U31G C50U,0.47
19,C27U U41G U49C U51C,0.04
20,A28C A45U A56G,0.19
21,A28G A47G A65C,0.23
22,A28C A45U A64U,0.14
23,A28G U31A A47U U67A,0.16
24,A28G U67A U78A,0.25

row,Variant,self-cleavage
1,A28G U31G A47U U78C,0.14
2,A28G C62U U66C,0.13
3,A28G A56U A65G U67A U72A,0.09
4,A28G U31C U49C,0.17
5,A28G A35G U41C G52A U67A,0.93
6,A28C U31C A64G,0.21
7,A28C A35U U66C,0.43
8,A28G U51C A75U,0.92
9,A28G C40A U74C,0.19
10,A28G C29U A57U A64C,0.41
11,A28C U74A U80A,0.85
12,A28G G42U U48C U66C U69C C81U,0.05
13,A28G U51A U54C U67A,0.11
14,A28G U31C C44A,0.2
15,A28G U49C U60C U76C,0.15
16,A28G U58C U72C A77G,0.08
17,A28C A56U A57G U60C,0.17
18,A28G U48C U51A U72G,0.17
19,C27U U58C U66C U69A U78C,0.09
20,A28G C37A U43G,0.48
21,A28G A35U U41C A56G,0.26
22,A28G U48C U78C U80C,0.21
23,A28G G36A A64G,0.26
24,A28G U48C A77U C81U,0.56

row,Variant,self-cleavage
1,A28C C40G U43C A57U A64G U72C,0.14
2,A28G U43A A47G,0.68
3,A28G G33C A35U U43A U69A,0.09
4,A28G G30A U48C U69A,0.18
5,A28G G30C U49C U54A,0.11
6,A28G U49C G73A,0.21
7,A28G U31C U54A,0.54
8,A28C U41C G53A G61A,0.22
9,A28G U48C C62U U76A,0.31
10,A28C A45G U49C A56G,0.29
11,A28G U41C U51C U54A A56G,0.32
12,A28G A35U U48A G55U,0.07
13,A28C G33A A57G U74A,0.15
14,A28G U31A A35U U41C,0.1
15,A28C U48C U58C U60G G63A U72G U78C,0.1
16,A28G U51C U54C A64U U72A,0.14
17,C27U U58C U69G,0.18
18,A28G U48C U66C,0.06
19,A28G U49A U66C,0.16
20,A28G A45G A77U,0.54
21,A28G C32U U80C,0.23
22,A28G U48A U67C,0.12
23,A28G U49G U66C,0.07
24,A28C A45G U54A A56G,0.24

row,Variant,self-cleavage
1,A28G C37A U60C,0.13
2,A28G G46A A47C,0.09
3,A28G U43A G63U U76G A77U,0.97
4,A28G U48C U66C U72A A75G,0.07
5,A28G A45U U67A,0.08
6,A28G C29U U43C U51A A64U,0.11
7,A28G A45G U67C U69A,0.14
8,A28G U43C A56G,0.27
9,A28G U43C U60A,0.18
10,A28G U31A U51C G53A,0.12
11,A28G C38G U49A U72C,0.07
12,A28C U51C U69A U78C,0.04
13,A28G U48C C62A G73A,0.65
14,A28G C29U A45U A47G,0.19
15,A28G A35G U51G,1.22
16,A28G A35G U51A,1.19
17,A28G U49C A56G U72C,0.69
18,A28G A45G U60A U69C U78G,0.09
19,A28G U31A U43G U72C,0.38
20,A28G A35G A47G U67A U69C,0.36
21,A28G C40A C50U,0.11
22,A28G U43A A75G,0.22
23,C27U U41G U54C U69A,0.07
